Results as given in the supplement of paper PMC8285479.
Counter-ions that a name gives are not always drawn. ± gives the standard deviation of the averaged measurements. Whole data set: some 1,900 compounds, median “normalised cell viability (NPI; 0 = phenylarsine oxide control, 1 = DMSO control)” near 1, cut for the lowest 2% near 0.039. Some of the results follow.

Test system: NCI-H1944
Experiment: normalised cell viability (NPI; 0 = phenylarsine oxide control, 1 = DMSO control) (fraction of DMSO control); NCI-H1944 is a non-small cell lung cancer line; higher = more viable cells (less compound toxicity)
Details: 6 days
[1] = glucocorticoid arm: hydrocortisone 2.75 uM co-treatment, compound 1 µM
[2] = glucocorticoid arm: hydrocortisone 2.75 uM co-treatment, compound 5 µM
[3] = glucocorticoid arm: hydrocortisone 2.75 uM pre-treated 2 days and continued, compound 1 µM
[4] = glucocorticoid arm: hydrocortisone 2.75 uM pre-treated 2 days and continued, compound 5 µM
[5] = glucocorticoid arm: vehicle, compound 1 µM
[6] = glucocorticoid arm: vehicle, compound 5 µM
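Further: CTB read-out in 384-well plates, mean of triplicate wells, normalised per plate against 1 µM phenylarsine oxide and 0.1% DMSO, compounds added 24 h after seeding.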

SMILES	normalised cell viability [1]	normalised cell viability [2]	normalised cell viability [3]	normalised cell viability [4]	normalised cell viability [5]	normalised cell viability [6]
CC[N+](CC)(CC)CC [Tetraethylammonium chloride]	1.013 ± 0.0058	1.02 ± 0.018	1.03 ± 0.026	1.017 ± 0.0058	1.002 ± 0.0068	1.007 ± 0.0058
Cc1cccc(-c2[nH]c(C(C)(C)C)nc2-c2ccc3nccnc3c2)n1	0.9913 ± 0.0038	0.836 ± 0.017	0.9853 ± 0.0042	0.969 ± 0.04	0.9847 ± 0.0011	0.83 ± 0.015
Cc1ccccc1/C=C/C1=NCCN1 [Metrazoline oxalate]	0.9993 ± 0.0011	1.002 ± 0.0072	1.01	0.987 ± 0.017	0.995 ± 0.007	1.002 ± 0.0076
NC1(c2ccc(-c3nc4ccn5c(=O)[nH]nc5c4cc3-c3ccccc3)cc2)CCC1 [MK-2206 dihydrochloride]	0.74 ± 0.029	0.54 ± 0.016	0.759 ± 0.025	0.663 ± 0.041	0.932 ± 0.0095	0.669 ± 0.018
O=C(O)Cc1ccccc1Nc1c(Cl)cccc1Cl [Diclofenac sodium]	1.006 ± 0.0069	0.989 ± 0.019	1.01 ± 0.011	0.982 ± 0.017	1.007 ± 0.0058	1.007 ± 0.0058
Cc1c(NC(=O)c2ccc(C(C)(C)C)cc2)cccc1-c1cn(C)c(=O)c(Nc2ccc(C(=O)N3CCOCC3)cc2)n1	1.017 ± 0.0058	1.03 ± 0.032	1.007 ± 0.0058	0.987 ± 0.022	1 ± 0.0087	1.006 ± 0.0063
O=c1[nH]cc(F)c(=O)[nH]1 [5-Fluorouracil; Fluorouracil]	1.043 ± 0.0058	0.706 ± 0.037	1.01 ± 0.015	0.838 ± 0.011	0.971 ± 0.0044	0.522 ± 0.032
O=c1[nH]cc(F)c(=O)[nH]1 [5-Fluorouracil]	0.98 ± 0.002	0.766 ± 0.0085	0.981 ± 0.012	0.984 ± 0.015	0.9837 ± 0.0084	0.729 ± 0.03
O=c1ncn2nc(Sc3ccc(F)cc3F)ccc2c1-c1c(Cl)cccc1Cl	0.923 ± 0.033	0.893 ± 0.043	0.935 ± 0.008	0.948 ± 0.011	1	1 ± 0.013
CC(C)Cc1ccc([C@H](C)C(=O)O)cc1 [S(+)-Ibuprofen]	0.998 ± 0.011	1.01 ± 0.013	1.01 ± 0.014	1.04 ± 0.097	0.982 ± 0.0089	0.987 ± 0.012
Cc1cncc(CN2CCC(=C3c4ccc(Cl)cc4CCc4cccnc43)CC2)c1 [Rupatadine Fumarate]	1.02 ± 0.011	1.03 ± 0.03	1.017 ± 0.0058	1.04 ± 0.017	1.017 ± 0.0058	1.013 ± 0.0058
CC(C)C(=O)SCCCCCCC(=O)Nc1nc(-c2ccccc2)cs1	1.005 ± 0.0057	1.04 ± 0.023	1 ± 0.015	1.02 ± 0.021	1.003 ± 0.0056	0.999 ± 0.018
N=c1ccn2c(n1)O[C@H]1[C@H](O)[C@@H](CO)O[C@H]12 [Ancitabine hydrochloride]	0.16 ± 0.012	0.103 ± 0.012	0.652 ± 0.079	0.211 ± 0.0064	0.0511 ± 0.0082	0.0465 ± 0.00057
C[N+](C)(C)CCO.[Br-] [Choline bromide]	1.017 ± 0.0058	1 ± 0.019	1.017 ± 0.0058	1.02	0.995 ± 0.0078	0.998 ± 0.014
COC(=O)[C@H]1[C@H]2C[C@@H]3c4[nH]c5cc(OC)ccc5c4CCN3C[C@H]2C[C@@H](OC(=O)c2cc(OC)c(OC)c(OC)c2)[C@@H]1OC [Reserpine]	0.9903 ± 0.0067	1.01 ± 0.025	0.99 ± 0.0072	1.004 ± 0.0078	0.999 ± 0.011	0.997 ± 0.0052
